The source of these data is the supplement of paper PMC11417369.

Some of the results follow.

The test relates to PfSIP2 AP2 domain 1 (GST-tagged). As to the kind of experiment: gcPBM binding intensity (ln(normalized median fluorescence intensity)); higher = stronger DNA binding. Summed up:
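DNA-binding domains from P. falciparum, fused to GST and produced in E. coli, were put on an Agilent 4 × 180k double-stranded probe array for 1 h in 1× PBS holding 1% milk, 0.2 mg/ml BSA, 0.5% salmon testes DNA and 0.03% Triton X-100. Probes were primer-extended, 36 bp long and drawn from intergenic genomic regions, with negative controls included. After Alexa488 anti-GST antibody detection and a 488 nm scan, binding intensity was set as the highest Masliner-normalised natural-log median intensity across replicate spots of either probe orientation.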
On to “GTATAATTTAAAAAGTGTACATAAAGTTTTTATTAA [XGTACX_site1090]”, for which the “gcPBM binding intensity (ln)” value was determined as 7.28.
As for “AGTAATAAGTAATTTACACACATATTATAGCATCAC [CACACA_site6971]”, the figure is 7.04.
For “AAAAAATTCAAAATCACACATAAAAAAGGACACATA [CACACA_site5972]”, the “gcPBM binding intensity (ln)” value turned out to be 7.29.
The value for “CCTACAATTCGTAATACACACACATATATATATATA [CACACA_site9251]” was 9.52; that for “TCATATTATAAAAAATGTACAAGGAAAAAATATATA [XGTACX_site337]” was 7.04.
The value for “TAATTTTGTAAAAATTGTACATATTTATCTTTTTAT [XGTACX_site4305]” was 6.77; that for “ACATTATATAAAATATGTACACATAAATAAATAAAT [XGTACX_site5031]” was 7.14; that for “AAAAAAAAAAAAAACACACACATATAATATATTTAA [CACACA_site1337]” was 7.32.
Take “ACAAACTAAAAAAGAAGTACAAATCGTATTAATAAT [XGTACX_site8684]”: the “gcPBM binding intensity (ln)” value was determined as 7.11.
As for “TTTTTTGAAAATAAAAGTACAAATTTTATATTTAAA [XGTACX_site2758]”, the figure is 6.9.
As for “AGAAAAAAACGGTACAGTACACATAAACTAATTATT [XGTACX_site8617]”, the figure is 6.92.
As for “TATTATATATGGAAGTAATAATATATATATATATAT [GTGCAC_negctrl_site63]”, the figure is 9.02; as for “GATTAAATTTGACACTGTACAAAAAATAAAATGAGG [XGTACX_site504]”, 7.36.
As to “GTTAATTCATTAAGGACACACAAAAAAAAAAAAAAA [CACACA_site998]”, the “gcPBM binding intensity (ln)” value stood at 7.01.
The value for “ATGAATATAAAATATACACACTTATATATTGAATGA [CACACA_site4274]” was 6.71; that for “CCAACATAGAGGGGCACACACATATATACATAAAAA [CACACA_site1847]” was 7.83; that for “AGTATACATATATATACACACACATATATATATATA [CACACA_site7883]” was 9.43.
“CTTATATGAAGCCTCTTTATTCATAAATAAGAATAA [TGCATGCA_negctrl_site120]”: the “gcPBM binding intensity (ln)” value is 7.02.
As for “AAACAACATGGACACGCACACACAAAAAAAGCATGC [CACACA_site73]”, the figure is 7.21; as for “TTAACAAAATTTCCGTGTACGTAAATAAGAACATAG [XGTACX_site7200]”, 7.25; as for “TTACATACATACAAGTGTACGCATATATTAATATTA [XGTACX_site4006]”, 7.52.
As for “ATATGTACAAGTTATACACACATGTACAGTTATATA [CACACA_site6706]”, the figure is 7.11; as for TTTAACATTTCAGATGTGCACATTTTCCGAACCAGT, 9.72; as for “AGAACGACTAAGCAGTGTACATTTTGTATATACAAT [XGTACX_site2831]”, 7.07.
On to “AAAGAACTTAATGCTGCACACAAAAAAAAGGAAAAA [CACACA_site8375]”, for which the “gcPBM binding intensity (ln)” value worked out at 6.91.
As for “TAAATGTGTATATATTGTACAAATATTAATACATAC [XGTACX_site8102]”, the figure is 6.96; as for “AAATTGTTAAAAAGAAGTACATTCTTTTATTTCTTA [XGTACX_site540]”, 6.92.
The value for “ATAATGAAGACTTTTTTACACACTTCATATATTATA [CACACA_site8630]” was 6.96; that for TGATATTTTTCCATAGTGCAAAATATAGTAATGTAT was 8.15.
Take “ATGTACTATGATAATGCATGCAATAATACATTTTTA [TGCATGCA_site318]”: the “gcPBM binding intensity (ln)” value turned out to be 6.88.
For the sequence “TTATTATGTATATATGCACACAATACCCAAAACAAC [CACACA_site80]”, the “gcPBM binding intensity (ln)” value was 9.34.
The value for “TAATATATATATAATACACACTATTTTAATCACATA [CACACA_site4849]” was 6.87.
As for “TTTATTGCTCTATATGCACACCTTAATTCTTCATTT [CACACA_site8682]”, the figure is 7.42.
The value for “GAAGATTTATCTTGCACACGCAAAAAAAAAAAAAAA [CACACA_site154]” was 6.97.
For the sequence “GAAAATATTTCTATCTGTACTTATTTATATATATAT [XGTACX_site7317]”, the “gcPBM binding intensity (ln)” value was 8.87.
As for “AAAAATAATCATAGTAGTACAAAAAAAAAAAAAAAA [XGTACX_site3736]”, the figure is 7.04.
For “TACGTAAATTCTAATACACACTATAGGATATTCTGC [CACACA_site7248]”, the “gcPBM binding intensity (ln)” value worked out at 6.7.
As for “TTTTTATGAAAATAAACACACGATTTATTATATATA [CACACA_site1311]”, the figure is 6.7; as for “TTCTATATATTATATGCATGTAAAACATATTAAAAT [TGCATGCA_site662]”, 7.12; as for “TGCATGTAATTTTTGTGTCCACATAAAATATTTAAT [XGTACX_site5652]”, 7.1.
As for “TTTTTCAATTGTAGTGGTACAGATATAATTATCTCT [XGTACX_site5500]”, the figure is 6.93; as for “ATCATTTTTTATGCGTGTACATAAATTTATTAGGTT [XGTACX_site2786]”, 7.52; as for “TAATTATTACACGGTATTATATATAATATGTTAAAA [GTGCAC_negctrl_site134]”, 6.91.
The value for “TTTTTTGTTAAACCGGTGCATATAAATATATATATA [GTGCAC_site9989]” was 9.54.
In the case of “CACAAAAAAGTTCATACACACAACATATTTATATAT [CACACA_site2887]”, the “gcPBM binding intensity (ln)” value worked out at 6.98.
The value for “TTTTTTTTTTTTCTGTGTACATATATAATATATATA [XGTACX_site1592]” was 7.53; that for “ATATCTATATTTTAAAGTACGTAGTAAAAAGAAAAA [XGTACX_site4323]” was 6.98; that for “TTTTATGAAAAGATGAGTACACAATACTTTTTAATT [XGTACX_site8253]” was 7.31.
As for “TTATGTCGTAAATACACACATACATATACATACACA [CACACA_site1374]”, the figure is 6.98.
The value for “TTGTCACTAATAGATGCATGCAATCATTCCATTTTT [TGCATGCA_site938]” was 6.97; that for “TTGTAATGATATATTTGTACTTAATATAATTGTATA [XGTACX_site2748]” was 6.91.
In the case of “AATAAATTGAAACACACACACACATATATATATATA [CACACA_site848]”, the “gcPBM binding intensity (ln)” value came out at 9.2.
The value for “TAACAAAACATAGATTGTACATATTATAAATGTATA [XGTACX_site1543]” was 6.99; that for “GTTACATACCTATACACACACATATATAAATAAATA [CACACA_site6549]” was 7.46.
In the case of “TATTCTTATCTTACCACACACAATGTACGAAAAGAT [CACACA_site6296]”, the “gcPBM binding intensity (ln)” value amounted to 7.19.
In the case of “ATATAAAAATACAGGTGTACATTTTTTCATATTTAT [XGTACX_site6959]”, the “gcPBM binding intensity (ln)” value was determined as 7.18.
The value for “TTTCCCATAGGAAAAACACACATATATTATATATAA [CACACA_site1981]” was 6.72.
